Screen size: about 150,000 compounds; about 540 (0.36%) showed an effect of 50% or more. This is one part of the list.
System: Plasmodium falciparum
Assay: Primary screen in NF54 nanoGlo assay, in single point, at 2uM, 72h; a lower Z score goes with more inhibition
Type: functional, Erythrocyte
Conditions: timepoint 72 hour

SMILES | % Inhibition [%] | Z score
CC(C)[C@H](NC(=O)c1cc(F)cc2cccnc12)C(=O)N1CCOCC1 | 2 | -0.36
Cc1nnnn1Cc1ccc(C(=O)NCc2nc(-c3cnccn3)n[nH]2)cc1 | -5 | 0.86
CC(=C(F)C(=O)N1CCC(O)(c2c[nH]nn2)CC1)C1CC1 | -8 | 1.79
Cc1ccc2cc(CNC[C@H]3CCN(C4CC4)C3)ccc2n1 | 0 | 0.09
Cc1noc([C@H]2C[C@H](CNC3CCN(c4ccncc4)CC3)[C@H](O)C2)n1 | 5 | -1.06
O=c1[nH]ccnc1N1CCC[C@H](NCc2ccccc2N2CCOCC2)C1 | 0 | -0.1
COCc1cc(C[C@H]2CNCC[C@H]2CC(=O)N2CCC(n3c(=O)[nH]c4ccccc43)CC2)no1 | -7 | 1
Cc1cccc(C(=O)NC(C)C(=O)N2CCC(C)C(n3ccnc3)C2)c1 (configuration not stated) | -10 | 1.75
Cc1cc(CC2CN(C(=O)c3ccc(-c4noc(C5CC5)n4)cc3)CC2O)[nH]n1 (configuration not stated) | 1 | -0.17
CCC(CC)NS(=O)(=O)c1ccc(NCc2ccc(N3CCN(C)CC3)nc2)nc1 | 6 | -0.95
Clc1cc(Cl)cc(-c2nnc3ccc(NCCc4nnc[nH]4)nn23)c1 | -1 | 0.23
Cn1cncc1CNC1CCN(Cc2ccc(F)c(F)c2)CC1 | -3 | 0.48
Cc1cc(Oc2cc(Cl)ccc2CNc2cc(C(N)=O)ncn2)ccc1Cl | 4 | -0.79
O=c1c(CNCCc2c[nH]c3ccccc23)cc2cc3c(cc2n1CCN1CCCCC1)OCO3 | 8 | -1.46
CCC(CC)C(=O)N1CCC(NC2CCCC2C2CCCN2C(=O)OC(C)(C)C)CC1 (configuration not stated) | -3 | 0.69
Cc1ccc(C2CCN(C(=O)c3nccc4cccnc34)CC2)cn1 | -6 | 1.26
Cc1cc(C)cc(N2C(N)=NC(N)=N[C@H]2c2ccccc2F)c1 | -1 | 0.11
CN1CCC(Oc2ccc(NC(=O)c3cn4ccnc4s3)cn2)CC1 | 90 | -15.87
O=C(Nc1ccc2[nH]ncc2c1)NC1COCC1N1CCCCC1 (configuration not stated) | -1 | 0.22
Cc1nccc(-c2cccc(N3CCC(N[C@H]4CC(=O)N(C)C4)CC3)c2)n1 | -5 | 0.94
COc1c(Cl)cc(Cl)cc1CNCCN1CCN(C)CC1 | -6 | 1.02
CCc1cccc(OC2CN(C3CCN(c4cc(C)nc(N)n4)CC3)C2)c1 | -3 | 0.5
CCN1CCC(N2CCC(c3nc(-c4ccsc4)no3)CC2)CC1 | 6 | -1.15
CN1CCN(c2ncncc2N2CCC(C(=O)N(C)Cc3ccccc3)CC2)CC1 | -3 | 0.55
CCCNC(=O)CN(C)C(=O)CN(CCN1CCN(c2cccc(C)c2)CC1)CC1CC1 | -3 | 0.58
C[C@@H](C(=O)N1Cc2ccccc2OC2(CCN(C(=O)c3cnc4[nH]ncc4c3)CC2)C1)N(C)CC(F)(F)F | -3 | 0.5

SMILES | % Inhibition [%] | Z score
O=C(Nc1ccc2[nH]ncc2c1)[C@@H]1COCCN1C1CCCC1 | -6 | 1.01
Cc1cc(C)c2nc(CN3CCN(CC(=O)NC(C)C)CC3)cc(O)c2c1 | -4 | 0.68
c1ncc(-c2ccc3c(c2)CCN3)cc1NCC1CC1 | 0 | -0.08
NC(=O)C1(N2CCCCC2)CCN(c2ncnc3c2[nH]c2ccc(F)cc23)CC1 | -1 | 0.12
FC(F)Oc1cccc(CNc2nn3cc(-c4cccnc4)nc3s2)c1 | -14 | 2.06
c1ccc2c(CNCCC3CCN(c4ccncc4)CC3)csc2c1 | 80 | -17.16
Cc1ccc(-c2cc(C(=O)N[C@H]3CCCN(Cc4cccnc4)C3)[nH]n2)cc1 | -16 | 2.82
COc1c2c(cc3c1[C@H](CNC(=O)CCc1cn(C)c4ccccc14)N(C)CC3)OCO2 | -7 | 1.06
CC(C)CC1(C(=O)N2CCN(C(=O)N(C)C)CC2)CCCC1 | 5 | -1.05
Cc1cc2nc(CN(C)C(=O)C[C@H]3CCNC3)[nH]c2cc1C | -4 | 0.68
CC(C)Oc1cc(NCCN2CCC[C@H](CO)C2)nc(N)n1 | -17 | 3.77
CC(=O)N[C@@H](C)C(=O)NC(C)(C)c1ccc(OC(F)(F)F)cc1 | 4 | -0.7
Cc1nc(NC2COCC2N2CCN(C)CC2)cc(C2CCNCC2)n1 (configuration not stated) | -2 | 0.31
CC1(C)[C@@H](c2cccc(Cl)c2)CCN1CCC(=O)O | -3 | 0.58
COc1ccnc(NC2CCN(C(=O)[C@H](C)N3CCc4ccccc43)CC2)n1 | -7 | 1.12
O[C@@H](CNc1nccc(N2CCOCC2)n1)COc1ccc(F)c(F)c1 | -8 | 1.28
CCN(CCC(=O)N1CCN(c2ccccn2)CC1)C1CCN(C(C)c2ccccc2)C1 (configuration not stated) | 6 | -1.2
O=C(CN1CCOCC1)NC[C@H]1CCCN(Cc2ccc3[nH]ccc3c2)C1 | -2 | 0.32
CCc1ccc(-c2cc(C(=O)N[C@@H](C)c3nc(-c4ccncc4)no3)[nH]n2)cc1 | -1 | 0.1
CC(=O)N[C@@H](Cc1c[nH]cn1)C(=O)NC1CCN(C2CCN(C)CC2)CC1 | -7 | 1.05
CC(C)c1ccc(-c2ncc(CN(C)CC(=O)NC3CC3)s2)cc1 | -9 | 1.51
COc1ccc(CCNc2ccc3cc(C#N)ccc3n2)cc1 | -7 | 1.17
Cc1ccc2c(-c3ccccc3)nc(Nc3nc4ccccc4[nH]3)nc2c1 | -10 | 1.53
CNCCCCNCc1cc(O)c2cc(C)cc(C)c2n1 | -8 | 1.81
CS(=O)(=O)N1CC(Oc2cccnc2)CC1C(=O)N1CCC(N2CCCCC2)CC1 (configuration not stated) | -2 | 0.35

From ChEMBL document CHEMBL5308541, “MAIP: An Open-Source Tool to Enrich High-Throughput Screening Output and Identify Novel, Druglike Molecules with Antimalarial Activity” (ACS Med Chem Lett, 2023)
